Reference: the supplement of paper PMC11741623
This is one part of the list. Interaction screen of human proteins with wild-type SARS-CoV-2 proteins by split-DHFR complementation in yeast, 1 µg/mL methotrexate. Value = fitness of the pair (three or more lineages) minus that of the viral protein without a human partner, on a scale set by negative (0) and fused positive (1) controls, mean of up to three cultures; higher = more likely to interact. Active = false discovery rate below 0.05 (one-sided t-test) in at least one culture. Nearly all pairs are not hits, and differences among them are mostly noise (correlation between cultures about 0.3); most hits were seen in one culture only. Human sequences are the Swiss-Prot entries looked up by gene name; the clone may be another isoform. NSP2 values were corrected by the authors for a growth advantage. Listed are human proteins with a hit and a random twelfth of the others.

What was measured:
Test in all cases: yeast fitness gain over the viral ORF with no human partner (scaled fitness); higher = more likely to interact
SARS-CoV-2 E = test system: SARS-CoV-2 E
Method: (§1)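 Split mouse DHFR complementation in pooled diploid yeast: human ORFeome clones carry one fragment and viral ORFs the other; barcoded lineages compete in 1 µg/mL methotrexate and fitness is read by barcode sequencing in up to three cultures.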

SARS-CoV-2 M = test system: SARS-CoV-2 M
Method: as §1

SARS-CoV-2 NSP10 = test system: SARS-CoV-2 NSP10
Method: as §1

SARS-CoV-2 NSP13 = test system: SARS-CoV-2 NSP13
Method: as §1

SARS-CoV-2 NSP14 = test system: SARS-CoV-2 NSP14
Method: as §1

SARS-CoV-2 NSP15 = test system: SARS-CoV-2 NSP15
Method: as §1

SARS-CoV-2 NSP16 = test system: SARS-CoV-2 NSP16
Method: as §1

SARS-CoV-2 NSP1 = test system: SARS-CoV-2 NSP1
Method: as §1

SARS-CoV-2 NSP2 = test system: SARS-CoV-2 NSP2
Method: as §1

SARS-CoV-2 NSP4 = test system: SARS-CoV-2 NSP4
Method: as §1

SARS-CoV-2 NSP5 = test system: SARS-CoV-2 NSP5
Method: as §1

SARS-CoV-2 NSP6 = test system: SARS-CoV-2 NSP6
Method: as §1

SARS-CoV-2 NSP7 = test system: SARS-CoV-2 NSP7
Method: as §1

SARS-CoV-2 NSP8 = test system: SARS-CoV-2 NSP8
Method: as §1

SARS-CoV-2 NSP9 = test system: SARS-CoV-2 NSP9
Method: as §1

SARS-CoV-2 ORF10 = test system: SARS-CoV-2 ORF10
Method: as §1

SARS-CoV-2 ORF3A = test system: SARS-CoV-2 ORF3A
Method: as §1

SARS-CoV-2 ORF3B = test system: SARS-CoV-2 ORF3B
Method: as §1

SARS-CoV-2 ORF6 = test system: SARS-CoV-2 ORF6
Method: as §1

SARS-CoV-2 ORF7A = test system: SARS-CoV-2 ORF7A
Method: as §1

SARS-CoV-2 ORF7B = test system: SARS-CoV-2 ORF7B
Method: as §1

SARS-CoV-2 ORF8 = test system: SARS-CoV-2 ORF8
Method: as §1

SARS-CoV-2 S = test system: SARS-CoV-2 S
Method: as §1

SARS-CoV-2 N = test system: SARS-CoV-2 N
Method: as §1

Measured: yeast fitness gain

RGS3, P49796
inactive: SARS-CoV-2 E -0.014 | SARS-CoV-2 M -0.0573 | SARS-CoV-2 NSP10 = 0.0395 | SARS-CoV-2 NSP13 = -0.0131 | SARS-CoV-2 NSP14 = 0.0335 | SARS-CoV-2 NSP15 = -0.107 | SARS-CoV-2 NSP16 = -0.0688 | SARS-CoV-2 NSP1 = -0.0285 | SARS-CoV-2 NSP2 = -0.0569 | SARS-CoV-2 NSP4 = -0.357 | SARS-CoV-2 NSP5 = -0.0843 | SARS-CoV-2 NSP6 = 0.00972 | SARS-CoV-2 NSP7 = -0.0403 | SARS-CoV-2 NSP8 = -0.0457 | SARS-CoV-2 NSP9 = -0.0403 | SARS-CoV-2 ORF10 = 0.0746 | SARS-CoV-2 ORF3A -0.0115 | SARS-CoV-2 ORF3B -0.052 | SARS-CoV-2 ORF6 = -0.013 | SARS-CoV-2 ORF7A -0.0992 | SARS-CoV-2 ORF7B -0.0281 | SARS-CoV-2 ORF8 = 0.0347 | SARS-CoV-2 S 0.0717

ZNF673, Q5JUW0
inactive: SARS-CoV-2 E -0.0947 | SARS-CoV-2 M -0.03 | SARS-CoV-2 NSP10 = -0.0892 | SARS-CoV-2 NSP13 = 0.0301 | SARS-CoV-2 NSP14 = -0.13 | SARS-CoV-2 NSP15 = 0.0985 | SARS-CoV-2 NSP16 = 0.079 | SARS-CoV-2 NSP1 = -0.166 | SARS-CoV-2 NSP2 = -0.216 | SARS-CoV-2 NSP4 = -0.352 | SARS-CoV-2 NSP5 = 0.0165 | SARS-CoV-2 NSP6 = -0.0291 | SARS-CoV-2 NSP7 = -0.0625 | SARS-CoV-2 NSP8 = -0.044 | SARS-CoV-2 NSP9 = -0.051 | SARS-CoV-2 ORF10 = 0.0462 | SARS-CoV-2 ORF3A 0.0475 | SARS-CoV-2 ORF3B 0.0705 | SARS-CoV-2 ORF6 = 0.0357 | SARS-CoV-2 ORF7A 0.0225 | SARS-CoV-2 ORF7B 0.0153 | SARS-CoV-2 ORF8 = 0.0872 | SARS-CoV-2 S -0.0364

POLD2, P49005
inactive: SARS-CoV-2 E -0.149 | SARS-CoV-2 M -0.00285 | SARS-CoV-2 NSP10 = 0.0271 | SARS-CoV-2 NSP13 = 0.00545 | SARS-CoV-2 NSP14 = -0.153 | SARS-CoV-2 NSP15 = -0.0185 | SARS-CoV-2 NSP16 = 0.0075 | SARS-CoV-2 NSP1 = -0.0413 | SARS-CoV-2 NSP2 = -0.207 | SARS-CoV-2 NSP4 = 0.0172 | SARS-CoV-2 NSP5 = -0.00261 | SARS-CoV-2 NSP6 = 0.0341 | SARS-CoV-2 NSP7 = -0.0276 | SARS-CoV-2 NSP8 = 0.0192 | SARS-CoV-2 NSP9 = 0.0172 | SARS-CoV-2 N -0.03 | SARS-CoV-2 ORF10 = 0.0399 | SARS-CoV-2 ORF3A -0.0277 | SARS-CoV-2 ORF3B -0.000908 | SARS-CoV-2 ORF6 = 0.0403 | SARS-CoV-2 ORF7A 0.0322 | SARS-CoV-2 ORF7B 0.0125 | SARS-CoV-2 ORF8 = 0.049 | SARS-CoV-2 S -0.0803

ZNF517, Q6ZMY9
inactive: SARS-CoV-2 E -0.0201 | SARS-CoV-2 M 0.0289 | SARS-CoV-2 NSP10 = 0.0173 | SARS-CoV-2 NSP13 = -0.00375 | SARS-CoV-2 NSP14 = -0.0625 | SARS-CoV-2 NSP15 = 0.0301 | SARS-CoV-2 NSP16 = 0.0213 | SARS-CoV-2 NSP1 = 0.0454 | SARS-CoV-2 NSP2 = -0.101 | SARS-CoV-2 NSP4 = 0.0226 | SARS-CoV-2 NSP5 = -0.0108 | SARS-CoV-2 NSP6 = 0.0514 | SARS-CoV-2 NSP7 = 0.0609 | SARS-CoV-2 NSP8 = -0.00411 | SARS-CoV-2 NSP9 = 0.063 | SARS-CoV-2 N -0.0129 | SARS-CoV-2 ORF10 = -0.0155 | SARS-CoV-2 ORF3A -0.0612 | SARS-CoV-2 ORF3B -0.0576 | SARS-CoV-2 ORF6 = 0.0343 | SARS-CoV-2 ORF7A 0.0124 | SARS-CoV-2 ORF7B -0.0184 | SARS-CoV-2 ORF8 = 0.0128 | SARS-CoV-2 S -0.0238

IDH3B, O43837
inactive: SARS-CoV-2 M 0.018 | SARS-CoV-2 NSP10 = 0.0286 | SARS-CoV-2 NSP13 = 0.0279 | SARS-CoV-2 NSP14 = -0.263 | SARS-CoV-2 NSP15 = -0.0318 | SARS-CoV-2 NSP1 = -0.0673 | SARS-CoV-2 NSP2 = -0.12 | SARS-CoV-2 NSP5 = -0.0115 | SARS-CoV-2 NSP6 = -0.1 | SARS-CoV-2 NSP7 = 0.173 | SARS-CoV-2 NSP8 = 0.0419 | SARS-CoV-2 N 0.179 | SARS-CoV-2 ORF10 = 0.00774 | SARS-CoV-2 ORF3A -0.0519 | SARS-CoV-2 ORF3B 0.0742 | SARS-CoV-2 ORF6 = -0.0224 | SARS-CoV-2 ORF7A 0.0391 | SARS-CoV-2 ORF7B 0.00714 | SARS-CoV-2 ORF8 = 0.0238 | SARS-CoV-2 S 0.0603
